Experiment [1] addresses T1, full-length human CD137 (huCD137) (human, UniProt Q07011 24-255).
T1 construct: On transduced Hut78 cells (Hut78/huCD137), transiently on HEK293 cells, or natively on PBMC/T cells; also called TNFRSF9; 4-1BB
Put plainly: flow cytometry on Hut78/huCD137 cells, detection with labelled anti-hu IgG Fc [panel B].

The target in experiment [2] is human CD137 ECD-mIgG2a (human). Briefly: SPR (BIAcore T-200): antibody captured on anti-human IgG (Fc) CM5 chip, human CD137 ECD-mIgG2a as analyte, 1:1 Langmuir fit [panel A].
In experiment [3] the target is human CD137 ECD-mIgG2a (human). Briefly: SPR, Fc-fusion VH captured on anti-human IgG Fc chip, human CD137 ECD-mIgG2a flowed over.
Experiment [4] addresses human CD137 ECD-mIgG2a (human). Briefly: SPR, human CD137 ECD-mIgG2a.
The target of experiment [5] is T1, full-length human CD137 (huCD137). Briefly: flow cytometry on Hut78/huCD137 cells.
Experiment [6] deals with human CD137 ECD-mIgG2a (human). Briefly: SPR, antibody captured on anti-human IgG Fc chip, human CD137 ECD-mIgG2a flowed over.
Another experiment concerns the target T2, cyno CD137 ECD-mIgG2a (Monkey (Macaca mulatta), called cyno).
T2 construct: also called monkey CD137
T2 chain: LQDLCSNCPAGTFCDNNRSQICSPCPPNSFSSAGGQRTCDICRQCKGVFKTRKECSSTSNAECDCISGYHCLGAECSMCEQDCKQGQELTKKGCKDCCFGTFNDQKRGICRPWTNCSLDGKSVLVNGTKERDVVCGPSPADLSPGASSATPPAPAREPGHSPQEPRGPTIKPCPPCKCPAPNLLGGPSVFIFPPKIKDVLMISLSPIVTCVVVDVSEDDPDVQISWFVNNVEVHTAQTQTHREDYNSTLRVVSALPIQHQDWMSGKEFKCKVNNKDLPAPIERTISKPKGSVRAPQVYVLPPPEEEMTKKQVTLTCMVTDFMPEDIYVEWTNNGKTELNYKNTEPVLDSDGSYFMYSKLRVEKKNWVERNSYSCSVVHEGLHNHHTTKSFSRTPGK
Briefly: SPR, antibody captured on anti-human IgG Fc chip, cyno CD137 ECD-mIgG2a flowed over.

Another experiment addresses T3, human CD40 ECD (human, UniProt P25942 in part).
T3 construct: also called TNFRSF5(CD40); huCD40
Put plainly: antigen ELISA, receptor coated at 10 ug/ml, detection with HRP anti-human IgG.

The next experiment concerns the target T4, human OX40 ECD (human, UniProt P43489 29-216).
T4 construct: also called TNFRSF4(OX40); huOX40
T4 sequence: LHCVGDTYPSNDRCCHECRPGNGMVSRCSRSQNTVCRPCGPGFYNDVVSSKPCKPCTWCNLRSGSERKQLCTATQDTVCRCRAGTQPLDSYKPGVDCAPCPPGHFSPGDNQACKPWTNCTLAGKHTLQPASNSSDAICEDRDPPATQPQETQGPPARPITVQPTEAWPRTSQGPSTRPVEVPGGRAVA
The experiment is described as above.

Another experiment deals with T5, TNFRSF1A(CD120a) (UniProt P19438 22-211, limits assumed).
T5 construct: Bought protein
T5 sequence (looked up): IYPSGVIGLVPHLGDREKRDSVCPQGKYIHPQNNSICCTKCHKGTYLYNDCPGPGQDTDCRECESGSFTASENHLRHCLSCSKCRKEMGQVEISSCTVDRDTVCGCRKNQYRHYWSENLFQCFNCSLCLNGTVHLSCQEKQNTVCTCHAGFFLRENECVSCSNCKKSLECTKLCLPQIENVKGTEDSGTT
Described as above.

The next experiment concerns the target T6, TNFRSF1B(CD120b) (UniProt P20333 23-257).
T6 construct: Bought protein
T6 sequence (looked up): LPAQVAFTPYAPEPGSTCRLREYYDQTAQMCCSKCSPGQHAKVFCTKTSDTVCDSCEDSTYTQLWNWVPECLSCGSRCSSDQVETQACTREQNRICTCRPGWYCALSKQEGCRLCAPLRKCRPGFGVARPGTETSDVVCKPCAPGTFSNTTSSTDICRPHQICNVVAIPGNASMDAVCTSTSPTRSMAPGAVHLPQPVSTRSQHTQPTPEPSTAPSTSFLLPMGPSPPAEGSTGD
The experiment is described as above.

The target in the next experiment is T7, TNFRSF7(CD27) (UniProt P26842 21-192, limits assumed).
T7 construct: Bought protein
T7 sequence (looked up): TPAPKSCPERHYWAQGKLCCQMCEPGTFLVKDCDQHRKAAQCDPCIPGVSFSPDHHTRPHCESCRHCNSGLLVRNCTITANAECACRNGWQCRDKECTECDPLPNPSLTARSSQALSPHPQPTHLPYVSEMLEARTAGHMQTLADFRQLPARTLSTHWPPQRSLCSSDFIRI
The description is as above.

In another experiment the target is T8, TNFRSF18(GITR) (UniProt Q9Y5U5 26-161, limits assumed).
T8 construct: Bought protein
T8 sequence (looked up): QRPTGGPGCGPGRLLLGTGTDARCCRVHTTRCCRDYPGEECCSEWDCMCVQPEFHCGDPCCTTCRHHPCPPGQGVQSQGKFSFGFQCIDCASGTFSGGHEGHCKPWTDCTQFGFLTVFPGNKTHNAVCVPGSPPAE
The description is as above.

Positions count from the first letter of the chain named.

T1 sequence (Q07011 24-255 limits assumed): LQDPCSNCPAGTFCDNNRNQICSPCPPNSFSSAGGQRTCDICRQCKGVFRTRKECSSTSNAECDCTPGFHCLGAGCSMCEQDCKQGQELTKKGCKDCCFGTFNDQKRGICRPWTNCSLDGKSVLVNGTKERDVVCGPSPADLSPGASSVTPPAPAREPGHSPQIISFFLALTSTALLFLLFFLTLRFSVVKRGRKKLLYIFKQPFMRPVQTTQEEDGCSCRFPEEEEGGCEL
human CD40 ECD, sequence (P25942 21-194 limits assumed): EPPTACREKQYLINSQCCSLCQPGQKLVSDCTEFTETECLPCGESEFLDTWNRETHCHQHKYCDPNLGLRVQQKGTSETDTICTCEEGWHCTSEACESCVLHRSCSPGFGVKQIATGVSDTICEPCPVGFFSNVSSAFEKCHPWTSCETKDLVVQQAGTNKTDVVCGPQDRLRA

B1: BGA-4712 (VH-Fc) (Fc fusion)
chain: EVQLLESGGGLVQPGGSLRLSCAASGFMLSAEDVGWVRQAPGKGLEWVSAILDFGGSTYYADSVKGRFTISRDNSKNTLYLQMNSLRAEDTAVYYCARVVYHAGGGVTFDYWGQGTLVTVSSGGGGS[human IgG1 Fc not shown]
Turning to B1, the EC50 in experiment [1] came to 2.97 µg/mL. Also, in the experiment with human CD137 ECD-mIgG2a [2], binding was put at a Kd of 36.4 nM, the koff is 0.000794 s⁻¹ and the kon was determined as 21800 M⁻¹ s⁻¹.

B2: BGA-7916-mutFc (Fc fusion)
chain: B1 chain with M28T, L29V, F54S, D62E, S75A, N84S, F109Y, Y111T, W112R, L117Q
On to B2, for which the dissociation constant Kd with human CD137 ECD-mIgG2a [3] worked out at 87.7 nM.

B3: BGA-9468-mutFc (Fc fusion)
chain: B1 chain with M28T, L29V, F54S, D62E, S75A, N84S, A103S, Y111L, W112R, L117Q
On to B3, for which the Kd with human CD137 ECD-mIgG2a [3] came out at 190 nM.

B4: BGA-7556-mutFc (Fc fusion)
chain: B1 chain with M28T, D62E, S75A, N84S, W112R, L117Q
notes: also called BGA-7556 (Fc fusion VH)
On to B4, for which the dissociation constant Kd with human CD137 ECD-mIgG2a [4] and with human CD137 ECD-mIgG2a [3] was 200 nM throughout. The concentration for a half-maximal effect (EC50) in experiment [5] worked out at 5.71 µg/mL.

B5: BGA-3849-mutFc (Fc fusion)
chain: B1 chain with M28T, A31H, F54S, D62E, S75A, N84S, V99Y, Y111T, W112R, L117Q
As for B5, the Kd with human CD137 ECD-mIgG2a [3] was found to be 76.3 nM.

B6: BGA-7746-mutFc (Fc fusion)
chain: B1 chain with M28T, L29V, D62E, S75A, N84S, Y111T, W112R, L117Q
Turning to B6, in the experiment with human CD137 ECD-mIgG2a [3], the affinity, expressed as Kd, was 193 nM.

B7: BGA-4988-mutFc (Fc fusion)
chain: B1 chain with M28T, L29V, F54R, D62E, S75A, N84S, F109Y, Y111T, W112R, L117Q
As to B7, the Kd with human CD137 ECD-mIgG2a [3] turned out to be 1030 nM.

B8: BGA-3953-mutFc (Fc fusion)
chain: B1 chain with M28T, L29V, F54S, D62E, S75A, N84S, V99I, Y111T, W112R, L117Q
In the experiment with human CD137 ECD-mIgG2a [3], B8 displayed a Kd of 48.3 nM.

B9: BGA-4712-M3-mutFc (Fc fusion)
chain: B1 chain with M28T, D62E, S75A, N84S
For the molecule B9, the Kd with human CD137 ECD-mIgG2a [4] and with human CD137 ECD-mIgG2a [3] was 169 nM in each case. Besides, the concentration for a half-maximal effect (EC50) in experiment [5] was found to be 2.37 µg/mL.

B10: BGA-5623-mutFc (Fc fusion)
chain: B1 chain with M28T, L29V, F54K, D62E, S75A, N84S, V99I, Y111T, W112R, L117Q
notes: also called Fc fusion VH Ab
Molecule B10 yielded a Kd with human CD137 ECD-mIgG2a [3] of 50.3 nM.

B11: BGA-8425-mutFc (Fc fusion)
chain: B1 chain with M28T, F54S, D62E, S75A, N84S, F109Y, W112R, L117Q
Regarding B11, the Kd in the experiment with human CD137 ECD-mIgG2a [3] came to 93.4 nM.

B12: BGA-3285-mutFc (Fc fusion)
chain: B1 chain with M28T, L29I, D62E, S75A, N84S, Y111T, W112R, L117Q
Molecule B12 came in with a Kd with human CD137 ECD-mIgG2a [3] of 186 nM.

B13: BGA-9442-mutFc (Fc fusion)
chain: B1 chain with M28T, L29I, F54S, D62E, S75A, N84S, V99Y, Y111L, W112R, L117Q
B13 showed a Kd with human CD137 ECD-mIgG2a [3] of 151 nM.

B14: BGA-5623 (IgG1) (Fc fusion)
chain: EVQLLESGGGLVQPGGSLRLSCAASGFTVSAEDVGWVRQAPGKGLEWVSAILDKGGSTYYAESVKGRFTISRDNAKNTLYLQMSSLRAEDTAVYYCARIVYHAGGGVTFDTRGQGTQVTVSS[human IgG1 Fc with changes not shown]
With B14, the figures for the Kd in the experiment with human CD137 ECD-mIgG2a [6] and with cyno CD137 ECD-mIgG2a were 79.4 nM and 12.2 nM, respectively. Besides, the values for the koff in the experiment with human CD137 ECD-mIgG2a [6] and with cyno CD137 ECD-mIgG2a were 0.00322 s⁻¹ and 0.00197 s⁻¹, respectively. In addition, the figures for the kon with human CD137 ECD-mIgG2a [6] and in the experiment with cyno CD137 ECD-mIgG2a were 40500 M⁻¹ s⁻¹ and 162000 M⁻¹ s⁻¹, respectively. Further, the binding result with human CD40 ECD, with human OX40 ECD, in the experiment with TNFRSF1A(CD120a), with TNFRSF1B(CD120b), with TNFRSF7(CD27) and with TNFRSF18(GITR) was “no binding” each time.

The values are drawn from patent US20240209106A1 (BEIGENE SWITZERLAND, published 2024).
